# Source: PubChem BioAssay AID588453 (National Center for Advancing Translational Sciences (NCATS), 2011)
# Where “and” joins values, the source holds several entries; their conditions need not be identical. Identical values can stand only once. The whole screen tested about 390,000 compounds, of which about 4,000 (1%) were called active. The inconclusive results got no clear call from the source; some entries with a clear call stand among them for comparison. The call rests on the fitted dose curve; in most records, active means well fitted inhibition curve with a large enough effect; inconclusive means small, poorly fitted or top-dose-only effect; inactive means no such curve, though single readings can be large or run the other way. Potencies of inconclusive entries are doubtful fits and often do not repeat.
# Molecular target: Thioredoxin reductase 1, cytoplasmic (Rattus norvegicus) (UniProt O89049)
# Chain of UniProt O89049 (O89049 whole entry, looked up): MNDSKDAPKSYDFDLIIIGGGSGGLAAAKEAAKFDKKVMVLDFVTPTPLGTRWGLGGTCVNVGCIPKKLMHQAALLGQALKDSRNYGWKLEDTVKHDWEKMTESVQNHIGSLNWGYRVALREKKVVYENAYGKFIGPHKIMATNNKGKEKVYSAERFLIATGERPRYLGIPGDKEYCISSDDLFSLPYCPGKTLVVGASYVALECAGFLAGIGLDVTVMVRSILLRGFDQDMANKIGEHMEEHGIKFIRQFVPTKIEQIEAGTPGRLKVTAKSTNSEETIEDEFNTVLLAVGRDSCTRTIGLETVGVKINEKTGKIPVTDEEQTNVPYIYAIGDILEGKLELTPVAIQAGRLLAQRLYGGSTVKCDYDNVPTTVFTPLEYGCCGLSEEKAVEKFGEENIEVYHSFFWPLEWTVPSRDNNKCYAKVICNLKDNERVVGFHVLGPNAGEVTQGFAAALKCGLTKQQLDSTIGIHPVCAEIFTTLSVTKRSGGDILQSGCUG
# Experiment: qHTS Assay for Inhibitors of Mammalian Selenoprotein Thioredoxin Reductase 1 (TrxR1): qHTS; further: nearly all actives have a fitted effect of over 65% in size
# Details: recombinant rTrxR1, NADPH fluorescence consumption, selenite substrate; series mostly up to 114 µM; activity change, negative = inhibition: at the top concentration
# Summary of the method: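 Rat TrxR1 (90 nM in the dispensed reagent) was pre-reduced with 400 uM NADPH for 5 min at room temperature, then incubated with compound for 15 min. After 400 uM selenite was added, NADPH fluorescence (Ex 340/Em 450 nm) was followed for 8 min.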
# On the % scale 0 is the no-effect control and ±100 the full control effect; potency means the concentration at half of the fitted maximal effect; tags describe the fitted curve by direction and shape.
SMILES,Potency,"activity change, negative = inhibition"
CCCOc1ccc(CN(CCC#N)C(=S)NC(=O)c2ccccc2)cc1,"inconclusive: 31.6 µM [inhibitor, single point]",–
COC(=O)/C=c1/s/c(=C(/C#N)C(=O)N2CCCCC2)n(-c2ccccc2)c1=O,"inconclusive: 56.2 µM [inhibitor, partial curve]",–
O=C(NCc1cc([N+](=O)[O-])ccc1O)c1cccc(NS(=O)(=O)c2ccccc2)c1,–,inactive: -2.96%
Cc1cccc(NC2=C(NC(=O)c3ccccc3)C(=O)c3ccccc3C2=O)c1,"inconclusive: 2.24 µM [inhibitor, full curve]",–
Nc1ccccc1-c1n[nH]c(=S)s1,"inconclusive: 1 µM [inhibitor, full curve]",–
Cc1ccc(CNC(=O)c2cccc(OCc3c(C)noc3C)c2)cc1,"inconclusive: 39.8 µM [inhibitor, single point]",–
COc1ccc(-c2nc(S(=O)(=O)c3ccccc3)c(NCCCN3CCOCC3)o2)cc1,"inconclusive: 50.1 µM [inhibitor, single point]",–
CCC(=O)N1CCc2cc(S(=O)(=O)NC(C(=O)NCCc3ccc(C)cc3)C(C)C)ccc21 (centres undefined),–,inactive: 19%
Cc1ccc(OCC(=O)Oc2ccccc2[N+](=O)[O-])cc1,"inconclusive: 39.8 µM [inhibitor, single point]",–
COc1ccc(CCNC(=O)/C=C/c2ccco2)cc1,active: 35.5 µM,–
Cc1ccc2[nH]c(=O)c(C(c3nnnn3Cc3ccccc3)N3CCc4ccccc43)cc2c1 (centres undefined),"inconclusive: 11.2 µM [inhibitor, full curve]",–
O=S1(=O)[C@H]2C[C@@H]3C=C[C@@]2(CN1Cc1cccc(C(F)(F)F)c1)O3,"inconclusive: 79.4 µM [inhibitor, single point]",–
Cc1cc(C)nc(SCc2cc(=O)c(OC(=O)c3ccc(S(=O)(=O)N(C)C)cc3)co2)n1,active: 50.1 µM,–
CC(C)c1nn2c(=O)cc(COC(=O)c3ccccc3Cl)nc2s1,–,inactive: 13.8% [at 57.1 µM]
CCC1(C)Cc2c(sc(NC(=S)NC(=O)c3ccccc3)c2C#N)CO1 (centres undefined),"inconclusive: 5.01 µM [inhibitor, partial curve]",–
CCOc1ccc(S(=O)(=O)N2CCN(c3ccc(C)cc3C)CC2)c2ccccc12,–,inactive: 5.87%
COc1cc(CC2COC(c3ccc(O)c(OC)c3)C2COC(C)=O)ccc1O (centres undefined),"inconclusive: 79.4 µM [inhibitor, partial curve, poor fit]",–
Cc1cc(O)c(C(C)C)cc1N=Nc1ccccc1C(=O)O,–,inactive: -14.8%
CC(C)c1cc(CN2CCOCC2)cc(C(C)C)c1O,"inconclusive: 39.8 µM [inhibitor, partial curve]",–
CCN1CCN(Cc2coc3ccc(C)cc3c2=O)CC1,"inconclusive: 31.6 µM [inhibitor, single point]",–
O=C(O)c1ccccc1N/N=C/c1c(Sc2nnnn2-c2ccccc2)nc2ccccn2c1=O,"inconclusive: 79.4 µM [inhibitor, single point]",–
CCCCC1=CC2=CC(=O)C(C)(OC(=O)CC)C(=O)C2=CN1C1CCCCC1 (centres undefined),"inconclusive: 5.01 µM [inhibitor, full curve, poor fit]",–
C[C@H]1c2cccc(O)c2C(O)=C2C(=O)[C@]3(O)C(O)=C(C(N)=O)C(=O)[C@@H](N(C)C)[C@@H]3[C@@H](O)[C@@H]21,"inconclusive: 21.2 µM [inhibitor, single point]",–

SMILES,Potency,"activity change, negative = inhibition"
NS(=O)(=O)c1ccc(NC(=O)COC(=O)c2cnccn2)cc1,"inconclusive: 89.1 µM [inhibitor, single point]",–
Cc1ccc(-c2nc(CNC(=O)c3ccco3)cs2)cc1,"inconclusive: 70.8 µM [inhibitor, partial curve]",–
COc1cc(NC(=S)NCc2ccco2)cc(OC)c1OC,–,inactive: -25%
Fc1ccc(NC(=S)Nc2ccc(F)c(Cl)c2)cc1Cl,"inconclusive: 22.4 µM [inhibitor, single point]",–
O=C(NC(=S)Nc1cccnc1Cl)c1ccc(F)cc1,"inconclusive: 25.1 µM [inhibitor, single point]",–
Cc1ccc(NC(=O)c2ccco2)c([N+](=O)[O-])c1,–,inactive: 6.41% [at 57.1 µM]
O=C(Cc1ccc(Cl)cc1)NNC(=O)c1cnccn1,–,inactive: -1.27% [at 57.1 µM]
N#CC1=C(N)n2c(s/c(=C\c3cccs3)c2=O)=C(C#N)C1c1cccs1 (centres undefined),"inconclusive: 70.8 µM [inhibitor, single point]",–
O=C(CCC(=O)N/N=C/c1ccco1)N/N=C/c1ccco1,"inconclusive: 14.1 µM [inhibitor, partial curve, poor fit]",–
CCOc1ccc(C(NC(=O)c2cc(OC)c(OC)c(OC)c2)c2cc(Cl)c3cccnc3c2O)cc1 (centres undefined),–,inactive: 17.2% [at 57.1 µM]
Cc1ccc(S(=O)(=O)N(CC(=O)Nc2c(C)cccc2C)c2cccc(Cl)c2)cc1,–,inactive: 24.6%
CC(=O)C1=C(C)NC(SCc2cccc3ccccc23)=C(C#N)C1c1ccco1 (centres undefined),"inconclusive: 3.16 µM [inhibitor, full curve]",–
CCOc1ccc(NC(=O)c2nc(S(=O)(=O)Cc3ccc(C)cc3)ncc2Cl)cc1,"inconclusive: 11.2 µM [inhibitor, full curve]",–
CN(Cc1ccccc1)C(=O)CSc1nnc(-c2ccco2)n1-c1ccccc1,"inconclusive: 56.2 µM [inhibitor, partial curve]",–
O=C(Nc1ccc(S(=O)(=O)N2CCCC2)cc1)c1cccs1,–,inactive: 23.7% [at 57.1 µM]
CCOC(=O)c1c(-c2ccccc2)oc2cc(Br)c(O)c(C=O)c12,"inconclusive: 56.2 µM [inhibitor, partial curve, poor fit]",–
O=S(=O)(c1ccc(=S)[nH]c1)N1CCOCC1,"inconclusive: 2 µM [inhibitor, full curve]",–
Cc1nnc(NC(=O)CSc2nnc3ncccn23)s1,"inconclusive: 63.1 µM [inhibitor, partial curve, poor fit]",–
CN(C)c1ccc(/C=C2\C(=O)Nc3ccccc32)cc1,"inconclusive: 50.1 µM [inhibitor, partial curve] and inconclusive: 11.2 µM [inhibitor, partial curve, poor fit]",–
CCC1(CC)Cc2ccccc2C(CC(=O)N2CCOCC2)=N1,"inconclusive: 31.6 µM [inhibitor, single point]",–
C/C=C/c1ccc(OCCn2cncn2)c(OC)c1,"inconclusive: 79.4 µM [inhibitor, partial curve, poor fit]",–
Oc1ccccc1C1C=C(c2ccc3c(c2)OCO3)NC(c2ccc(F)c(Br)c2)N1 (centres undefined),–,inactive: -22.9%
COc1ccc(-c2nc(CSCC(=O)N3CCN(c4ccc(F)cc4)CC3)c(C)o2)cc1,–,inactive: 13.9%

SMILES,Potency,"activity change, negative = inhibition"
Cc1ccc(C)c(-n2c(=O)c(C#N)cc3c(=O)n4ccccc4nc32)c1,"inconclusive: 50.1 µM [inhibitor, single point]",–
CCOC(=O)C1=C(C)Nc2nc(SCC)nn2C1c1ccc(OC)cc1 (centres undefined),–,inactive: 9.09% [at 57.1 µM]
C(=C\c1ccc2ccccc2n1)/c1ccccc1,"inconclusive: 79.4 µM [inhibitor, partial curve]",–
Cc1cc(C)n(-c2nc(NC(C)(C)C)nc(NC(C)(C)C)n2)n1,–,inactive: 15.2% [at 57.1 µM]
CCNC(=S)NNC(=O)c1cc(-c2cc(C)ccc2C)nc2ccccc12,"inconclusive: 39.8 µM [inhibitor, single point]",–
COc1cccc(C2C3CN(C)CC=C3C(C#N)=C(N)C2(C#N)C#N)c1OC (centres undefined),"inconclusive: 70.8 µM [inhibitor, single point]",–
O=c1cc(CN2CCN(S(=O)(=O)/C=C/c3ccccc3)CC2)c2ccc(O)cc2o1,"inconclusive: 89.1 µM [inhibitor, single point]",–
COc1cc(OC)c(C2CC(=O)N3CN(c4ccccc4)CSC3=C2C#N)cc1OC (centres undefined),active: 31.6 µM,–
Nc1c(C=C2C=CC(=O)C=C2)c(=O)nc2snc(SCc3ccccc3)n12,–,inactive: -3.89%
COc1ccc(OCC(=O)OCC(=O)NC2CCCC2)cc1,"inconclusive: 63.1 µM [inhibitor, single point]",–
O=C(Nc1ccc(O)cc1)c1ccc2c(c1)C(=O)N(Cc1ccco1)C2=O,"inconclusive: 20 µM [inhibitor, full curve, poor fit]",–
Cc1cc(=O)oc2c3c(cc(OCC(=O)NCCN4CCOCC4)c12)OC(C)(C)CC3,"inconclusive: 89.1 µM [inhibitor, single point]",–
Cc1ccccc1OCCCN1C(=O)C(=O)c2cccc(C)c21,–,inactive: 4.83%
CCC(=O)Nc1ccc(S(=O)(=O)N2CCC(c3nc4ccccc4[nH]3)CC2)cc1,–,inactive: -3.05%
COc1cc(OC)c(OC)cc1/C=C/c1ccc2ccccc2[n+]1C,–,inactive: -13%
Cn1nnnc1SCC(=O)c1ccc(Br)s1,"inconclusive: 50.1 µM [inhibitor, partial curve]",–
Cc1cccc(N2C(=O)/C(=C\c3ccc(OC(F)F)cc3)c3ccccc3C2=O)c1,"inconclusive: 25.1 µM [inhibitor, partial curve]",–
CCCCCC(C)NC(=O)c1ccoc1C (centres undefined),"inconclusive: 50.1 µM [inhibitor, partial curve, poor fit]",–
O=C(O)/C(=C\c1cn(-c2ccccc2)nc1-c1cccnc1)NC(=O)c1ccccc1,–,inactive: 9.14%
O=C1NCCCC2c3c(cc(Br)c(O)c3Br)OC12N1CCCCC1 (centres undefined),active: 25.1 µM,–
CN1CCN(Cc2cccc3ncccc23)CC1CCO (centres undefined),"inconclusive: 28.2 µM [inhibitor, partial curve, poor fit]",–
CC(=O)c1ccc(NC(=O)Cn2nc(N3CCN(c4ccccc4)CC3)ccc2=O)cc1,–,inactive: 3.04% [at 57.1 µM]
COc1ccccc1OC(C)C(=O)Nc1cccc(-c2nc3ccccc3o2)c1 (centres undefined),–,inactive: 45.6%
